Test results reported in the supplement of paper PMC10126150.
Sequences with one replicate were seen in a single cluster, so their values are uncertain.

Test system: ATP
Test: switch fluorescence ratio, 500 uM ATP over buffer (Cy3 cluster intensity, sum of 5 cycles each) (fold (ratio)); higher = stronger signal-on switching upon ATP binding; sequences stand for … in TCGTCGGCAGCGTCAGATGTGTATAAGAGACAGTTTTTTTTTTTTTTTTTTTTTTTTT…TC
Details: aptamer strand: ATP DNA aptamer (quencher-CACCTGGGGGAGTATTGCGGAGGAAGG + anchor), 100 nM annealed; ATP concentration: 500 uM; one replicate
Outline: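 Values give the fluorescence ratio for each switch-domain sequence, averaged from per-cluster ratios of summed target-cycle to summed buffer-cycle Cy3 intensity. The Cy3-labelled switching-strand clusters sat on a modified Illumina MiSeq flow-cell, were annealed to 100 nM quencher-labelled ATP aptamer, and were imaged in selection buffer, then after 15 min with 500 uM ATP at 22 °C. Five cycles ran with NaOH stripping and re-annealing between them, and clusters outside 100-1000 RFU were excluded.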
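Note: ATP exposure 15 min at 22 °C before imaging.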

## CGCACAGACA
  switch fluorescence ratio: 1.4

## AAGGAATGAG
  switch fluorescence ratio: 0.981

## AATGCACAGC
  switch fluorescence ratio: 1.07

## TGCACGTTGT
  switch fluorescence ratio: 1.07

## TGCATGGGCG
  switch fluorescence ratio: 0.982

## CCACGTCCTG
  switch fluorescence ratio: 1.03

## CTTGGTTGTC
  switch fluorescence ratio: 0.996

## TAGAGGCACG
  switch fluorescence ratio: 1.02

## TAGAGAGTCG
  switch fluorescence ratio: 1.01

## GAGCTATTGG
  switch fluorescence ratio: 0.925

## GATCCTACCG
  switch fluorescence ratio: 1.07

## GCCAAGTCCC
  switch fluorescence ratio: 1.04

## GTCTATGGGA
  switch fluorescence ratio: 0.991

## GAAAGGGGCA
  switch fluorescence ratio: 0.974

## GAATCGGC
  switch fluorescence ratio: 0.965

## TCACATGTGC
  switch fluorescence ratio: 0.971

## TTAAAACACA
  switch fluorescence ratio: 1.28

## TTTTGGGAGA
  switch fluorescence ratio: 1.02

## ATCCTCAGCC
  switch fluorescence ratio: 1.64

## AGTGTAATAG
  switch fluorescence ratio: 1.07

## TTGCGTCTCA
  switch fluorescence ratio: 1.02

## AAAGGGTGCC
  switch fluorescence ratio: 0.986

## TAACGAGTAG
  switch fluorescence ratio: 1

## GATATAAGTA
  switch fluorescence ratio: 0.961

## CTAAGCTTTT
  switch fluorescence ratio: 0.996

## TTTTGGACCG
  switch fluorescence ratio: 1.21

## GCTGGAGTGC
  switch fluorescence ratio: 1.1

## ACAGGAGCCC
  switch fluorescence ratio: 1.05

## AGGCGTTACG
  switch fluorescence ratio: 1.02

## TTATTGAAGT
  switch fluorescence ratio: 1.02

## CTTGAGGCT
  switch fluorescence ratio: 1.02

## AGCGGACAGC
  switch fluorescence ratio: 1.04

## CTTTTACTGG
  switch fluorescence ratio: 1.01

## GTATAGAAGG
  switch fluorescence ratio: 1.02

## GAAGTGACAG
  switch fluorescence ratio: 0.997

## CGTGAGACTA
  switch fluorescence ratio: 1.05

## TGACTGAACT
  switch fluorescence ratio: 1.08

## CATACCGCTA
  switch fluorescence ratio: 3.99

## AACCGAAGGT
  switch fluorescence ratio: 1.02

## GGCGCTATTC
  switch fluorescence ratio: 1.35

## CCATTCGAAC
  switch fluorescence ratio: 1.07

## ATCGAAGTGC
  switch fluorescence ratio: 1.09

## TGCGTTGTAG
  switch fluorescence ratio: 0.997

## CCTTGGGGCT
  switch fluorescence ratio: 1.16

## GCAGTATGAA
  switch fluorescence ratio: 1.01

## ATTACCGGTA
  switch fluorescence ratio: 1.01

## CAAATGCTTG
  switch fluorescence ratio: 1.02

## GCTCGCCCTA
  switch fluorescence ratio: 0.989

## AATATCGGTG
  switch fluorescence ratio: 1.06

## GAGGTAACAC
  switch fluorescence ratio: 1.06

## CGCAGATAGC
  switch fluorescence ratio: 1.79

## AGGGCCTCAG
  switch fluorescence ratio: 1.06

## AAACACGGGA
  switch fluorescence ratio: 1.06

## TTAGGAATAA
  switch fluorescence ratio: 1.01

## TTACTAGGTT
  switch fluorescence ratio: 0.983

## GGTGGGTCCC
  switch fluorescence ratio: 0.981

## GGTTAAGCTG
  switch fluorescence ratio: 1.03

## GGGCTCAGTG
  switch fluorescence ratio: 1

## CAGCGTTGGC
  switch fluorescence ratio: 1.01

## GTCACAACTG
  switch fluorescence ratio: 1.08

## GGTTCATTGA
  switch fluorescence ratio: 1.05

## AGAGCGGAAG
  switch fluorescence ratio: 0.963

## CTATCTGGTT
  switch fluorescence ratio: 1.02

## GTTCAATATA
  switch fluorescence ratio: 1.04

## GTTAACAATG
  switch fluorescence ratio: 1.02

## GAGGCCGGTA
  switch fluorescence ratio: 1.02

## TATGCTAGAT
  switch fluorescence ratio: 0.985

## AATCGGTCAG
  switch fluorescence ratio: 0.981

## ACTACACCGT
  switch fluorescence ratio: 1.31

## GCCCTAGTGC
  switch fluorescence ratio: 1.04

## TGAAATAGAT
  switch fluorescence ratio: 0.955

## CTGGTGAGAC
  switch fluorescence ratio: 1.17

## TGTAAACCGA
  switch fluorescence ratio: 0.969

## CACATGACCG
  switch fluorescence ratio: 1.09

## CATGGTGC
  switch fluorescence ratio: 1.17

## CATACTCCGT
  switch fluorescence ratio: 1.19

## ACCGGTCAGT
  switch fluorescence ratio: 0.982

## TGTGGCCGCA
  switch fluorescence ratio: 0.991

## ATGCCAATAG
  switch fluorescence ratio: 1.09

## GCAGGGAATA
  switch fluorescence ratio: 0.992

## TCAGAAAAT
  switch fluorescence ratio: 0.973

## GGGGCCATTA
  switch fluorescence ratio: 0.983

## GGTTCGCGAC
  switch fluorescence ratio: 1.04

## GAACCTTCGC
  switch fluorescence ratio: 3.33

## GTTGATGGAT
  switch fluorescence ratio: 0.955

## CACTGCGGGG
  switch fluorescence ratio: 1.03

## CCGCTCGGGA
  switch fluorescence ratio: 1.49

## TTCCAGGGAC
  switch fluorescence ratio: 0.992

## AGACTTATGG
  switch fluorescence ratio: 0.966

## GAATTTGTCG
  switch fluorescence ratio: 1.02

## CCCTTGTACA
  switch fluorescence ratio: 1.07

## GATGAGTTCG
  switch fluorescence ratio: 1.03

## CCATCGTGTT
  switch fluorescence ratio: 0.987

## GACTCCGAGA
  switch fluorescence ratio: 5.61

## AGGTCGCGGC
  switch fluorescence ratio: 0.988

## GGGTTATGCA
  switch fluorescence ratio: 1.03

## CTCGTCGGTC
  switch fluorescence ratio: 1.05

## TTTAGGCCGC
  switch fluorescence ratio: 1.03

## AGCGGTCGGG
  switch fluorescence ratio: 0.97

## GCACAATTCG
  switch fluorescence ratio: 1.04

## TTACAAACT
  switch fluorescence ratio: 1.14

## GGGACGTTGT
  switch fluorescence ratio: 1.09

## ATGCGATGGA
  switch fluorescence ratio: 1.05

## CCTGACGGAC
  switch fluorescence ratio: 1.64

## ACCCCGAAGG
  switch fluorescence ratio: 1.08

## TACTTGAGCC
  switch fluorescence ratio: 0.994

## CCGGAGAATG
  switch fluorescence ratio: 2.42

## AACCAGGTCG
  switch fluorescence ratio: 1.11

## AGTGCGACAA
  switch fluorescence ratio: 1.09

## TACTGG
  switch fluorescence ratio: 1.04

## CGTCAGGTAT
  switch fluorescence ratio: 0.971

## GGCTATATTA
  switch fluorescence ratio: 1.03

## GGGGAGGTAT
  switch fluorescence ratio: 1.03

## ACCTGAAGGA
  switch fluorescence ratio: 0.985

## TGGAGCATGG
  switch fluorescence ratio: 0.982

## GCTAATCTC
  switch fluorescence ratio: 1.1

## TCTGTGCAGC
  switch fluorescence ratio: 1.08

## AGCTCGACCA
  switch fluorescence ratio: 1.06

## CTCATGCTAT
  switch fluorescence ratio: 2.05

## GTTAGTCATC
  switch fluorescence ratio: 0.978

## ATCACGAGA
  switch fluorescence ratio: 1.04

## ACCGGTCCAG
  switch fluorescence ratio: 1.02

## CTGGTAACAG
  switch fluorescence ratio: 0.971

## CGAAAAGAGC
  switch fluorescence ratio: 0.972

## TGGGCAAACG
  switch fluorescence ratio: 1.01

## TCGATCTCTG
  switch fluorescence ratio: 0.957

## CAGCGCTCCA
  switch fluorescence ratio: 1.09

## TACACCCAGA
  switch fluorescence ratio: 1.24

## TAGATGCATA
  switch fluorescence ratio: 1.01

## GATTGTGTAG
  switch fluorescence ratio: 1.02

## TGCGGAGTTA
  switch fluorescence ratio: 1

## ATATACTTG
  switch fluorescence ratio: 1.05

## GATTTTCTTA
  switch fluorescence ratio: 0.998

## ACTCTGTGTT
  switch fluorescence ratio: 0.993

## ATGCTTTGGC
  switch fluorescence ratio: 1.02

## AGATATCGAG
  switch fluorescence ratio: 0.98

## ATGCCGGCGC
  switch fluorescence ratio: 0.953

## GATAAGCCCG
  switch fluorescence ratio: 1.04

## CAGTTCATG
  switch fluorescence ratio: 0.957

## AATTGCGAGG
  switch fluorescence ratio: 0.982

## GATCAGTGGG
  switch fluorescence ratio: 0.998

## TCTCTATCCC
  switch fluorescence ratio: 1.05

## ACCAACGCAT
  switch fluorescence ratio: 2.13

## CTTATCACCT
  switch fluorescence ratio: 1.15

## CGGCGTGGAG
  switch fluorescence ratio: 1.05

## ACTGGATCCG
  switch fluorescence ratio: 1.26

## TAGGATGACA
  switch fluorescence ratio: 0.958

## GTATTATATC
  switch fluorescence ratio: 0.962

## TCGGGTTAT
  switch fluorescence ratio: 1.01

## TCATAATGTT
  switch fluorescence ratio: 0.994

## AGTTCTCCTT
  switch fluorescence ratio: 1.02

## AGATGTCGGG
  switch fluorescence ratio: 1

## ACTCATCCGG
  switch fluorescence ratio: 2.61

## CATGGCACGG
  switch fluorescence ratio: 1.07

## GATCTTGTTA
  switch fluorescence ratio: 1.05

## AGTAGTGCGG
  switch fluorescence ratio: 0.978

## TCATCACAGT
  switch fluorescence ratio: 0.998

## GTCGTCCTGG
  switch fluorescence ratio: 1.03

## CTGGGCCAGG
  switch fluorescence ratio: 1.05

## AGATTGAACA
  switch fluorescence ratio: 0.992

## CTATTGCGGC
  switch fluorescence ratio: 0.972

## ACGAAGTGC
  switch fluorescence ratio: 1.06

## CGCTCGCTGT
  switch fluorescence ratio: 1.25

## CACCTGGCCC
  switch fluorescence ratio: 1.02

## TTTGCGTTGA
  switch fluorescence ratio: 1.04

## GGAGTCGTAG
  switch fluorescence ratio: 1.01

## AATAAACCCT
  switch fluorescence ratio: 1.15

## TGAATTAGGC
  switch fluorescence ratio: 0.929

## GCTATATAT
  switch fluorescence ratio: 0.996

## TAACCTGGTA
  switch fluorescence ratio: 1.05

## CGTAGGGCGA
  switch fluorescence ratio: 1.03

## GGGTGCAAGG
  switch fluorescence ratio: 1.17

## TGTTGACGTT
  switch fluorescence ratio: 1.06

## TGGCGGCGAG
  switch fluorescence ratio: 0.991

## ATAGTCAG
  switch fluorescence ratio: 1.02

## AATAGTGAAT
  switch fluorescence ratio: 0.979

## AGCTGAAATT
  switch fluorescence ratio: 1.08

## GTACCCTTGG
  switch fluorescence ratio: 1.04

## GTAGGAGATT
  switch fluorescence ratio: 1.01

## AGGAGAGTAA
  switch fluorescence ratio: 1.01

## CCGTTAAACC
  switch fluorescence ratio: 1.25

## ATATTATGG
  switch fluorescence ratio: 0.973

## TAGTATGCAG
  switch fluorescence ratio: 1.04

## ACTATACGAA
  switch fluorescence ratio: 1.22

## TCCGACCGGT
  switch fluorescence ratio: 1.01

## CAGGACGGTA
  switch fluorescence ratio: 1.09

## TCCGGTGATA
  switch fluorescence ratio: 0.988

## CCTCCCCCCG
  switch fluorescence ratio: 2.37

## AAGTTGTACC
  switch fluorescence ratio: 1.01

## ACTACCAGTG
  switch fluorescence ratio: 3.76

## ATGGGCTGAT
  switch fluorescence ratio: 0.989

## AATTGAGTTC
  switch fluorescence ratio: 1.01

## CTCGTGGAAG
  switch fluorescence ratio: 1.06

## GCCCATTTTA
  switch fluorescence ratio: 1

## CAAGTGACAA
  switch fluorescence ratio: 0.973

## TGCCGCTGT
  switch fluorescence ratio: 1.05

## ACGCAGCACC
  switch fluorescence ratio: 4.78

## CACTTACGAA
  switch fluorescence ratio: 1.27

## GTCTGTTTTT
  switch fluorescence ratio: 0.964

## TCATGTGGGA
  switch fluorescence ratio: 0.992

## ACACATGGAC
  switch fluorescence ratio: 1.01
